# Reference: the supplement of paper PMC3334620
# In all, about 33,000 sequences were measured (“E-score (-0.5 to 0.5)”: median about -0.016, highest 2% from about 0.31 on). Some of the results follow.
# Molecular target: Cst6 (UniProt P40535)
# Experiment: PBM E-score (8-mer binding enrichment) (E-score (-0.5 to 0.5)); higher = stronger / more preferred TF binding; most listed sequences are background and not binding sites
# Details: protein concentration: 200 nM; construct: GST-DNA-binding domain
# In short: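 PURExpress in vitro transcription/translation supplied GST-tagged yeast transcription factors, either full-length or DNA-binding domain. Applied at about 100-200 nM to universal all-10-mer Agilent arrays double-stranded by primer extension, the bound protein was detected with fluorescent anti-GST. E-scores, modified Wilcoxon-Mann-Whitney statistics, were given by the Universal PBM Analysis Suite to ungapped eight-base words pooled with their reverse complements after masliner normalisation.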
row,Sequence,PBM E-score
1,ATATTGCC,0.149
2,ACAAAGTA,0.135
3,AGTACATC,-0.0114
4,AGGCGCCC,-0.00596
5,CGACAGTA,-0.165
6,TAAGTATA,0.122
7,ATAGACCA,-0.111
8,TCCCCAGA,-0.143
9,ATCACCGA,0.212
10,GCGAGTAA,0.117
11,CATTGCGC,0.0683
12,GGCACCAC,-0.1
13,AATTCCCT,-0.0661
14,CAAGCTCC,-0.261
15,AACTGTGC,-0.138
16,GTGCACTA,-0.0162
17,GCTGTCAA,-0.0289
18,AAGGAAGG,-0.14
19,TCAGAACA,0.158
20,CACTAGTC,-0.147
21,CCCACGGG,-0.214
22,ACCAGTGC,-0.193

row,Sequence,PBM E-score
1,AAGTGAGT,-0.106
2,CGGTAAGA,-0.0608
3,AATCGGAT,0.148
4,CCAGTCGA,-0.177
5,GGGAACGA,-0.224
6,AGTCTTCG,-0.0386
7,GATCTACA,0.041
8,ACAGACCT,-0.0625
9,ACGGTTGA,0.0328
10,AGTACCCG,-0.115
11,AAAATTCA,0.304
12,CAAAGGTC,-0.136
13,ACCCTGGA,-0.368
14,AGGGCAGA,-0.248
15,TCTACCAA,-0.0399
16,ATCGAGCG,0.0446
17,CCCTGTCA,-0.0501
18,GGTTGTTA,0.18
19,CGAACCAG,0.0173
20,AATGCAAT,-0.03
21,AGTAAGAT,0.137
22,AACTCTCA,0.0558

row,Sequence,PBM E-score
1,CTCCTGGC,-0.195
2,GACTGGAA,-0.103
3,CCCACAAA,0.178
4,CTTACGGA,-0.145
5,CGGAGAAG,-0.31
6,AAATAGTG,0.217
7,CATCAAAC,0.0468
8,GGGTTGGA,-0.206
9,CAGTGGGA,-0.182
10,AAAGCGGT,-0.114
11,ATGTTCGC,-0.0426
12,GATCTCTA,-0.0783
13,CCTTCGAC,-0.189
14,ACTTAACG,-0.0323
15,CACGCTGC,-0.246
16,CAAGAGGC,0.0779
17,AGGTCCAC,-0.321
18,GAGCGGCC,-0.126
19,ACAAGCGA,0.00814
20,CCTGATAC,0.0914
21,CAGTGTTC,-0.0383
22,AAATCTGT,0.0829

row,Sequence,PBM E-score
1,AAAATAGT,0.186
2,ATCTCGTC,0.15
3,CCACTGCG,-0.0063
4,AGCCCAAG,-0.213
5,GCTGCCTA,-0.062
6,ACGGGTGC,-0.0491
7,AAATCTAC,0.169
8,CAATTATA,0.0794
9,CGCCTTTA,0.0883
10,CGGTAGTA,-0.0951
11,GCTTGTGA,-0.0634
12,CCAGTCTA,-0.227
13,ACACCTAG,-0.262
14,CGGCACGA,0.21
15,CACCTATG,-0.00707
16,ACCTGTCA,-0.0473
17,GCGTGCTA,-0.194
18,CTGCTCTA,0.075
19,ATAGATGG,-0.129
20,CATGTTCC,-0.0952
21,CCCGCCAC,0.0116
22,AAAGGGCG,0.0973

row,Sequence,PBM E-score
1,TACGCCAA,-0.00893
2,CTTCGTCA,0.336
3,CGATACAC,-0.0629
4,CGCCGAGA,-0.151
5,ATAAATCC,0.0264
6,CCCGATTC,-0.0826
7,AACAAAGT,0.133
8,ATTTGAAC,0.106
9,ACACTGAC,0.0541
10,AGTACTCC,-0.258
11,CGTCAGCA,0.22
12,ACACGGGC,-0.234
13,AATTTTCT,0.194
14,AACAGTCT,-0.208
15,GATCTAAC,0.131
16,AATATATG,0.171
17,TGCCCCCA,-0.224
18,CCAGTTGC,-0.135
19,ATCATTAA,0.28
20,ACAGCGAA,0.0424
21,TGAGAGCA,-0.109
22,CCCCTCCG,-0.209
